Reference: the supplement of paper PMC12632987
In all, about 2,300 sequences were measured (“median log2 fold change of GCK-ALFA target abundance (FLAG IP / Myc IP barcode read proportion)”: median about 0.095, lowest 2% from about -0.47 on). Some of the results follow.

B1: LC3A_102_138 (protein)
chain: SIEEKIEELKERALEEMREALEEREDLTEEEKEELLELARKAIEATVESAKTLAQHGFVDIVAEDEALEALDRLEARDPELAKRLRELLERIEKEIEELY
B2: LC3A_free_39_2219 (protein)
chain: MEEEIEKLIKEIAEESGLDYEEVKEKLEEIKEIAGLSKEQIKEIAEALLEAVRAGADAKEILEEILKIAKELKAEGKSPEEIAKEILETIEDARNLVPLE
B3: LC3A_28_658 (protein)
chain: MPIEERLEEAIKKAKEAKEKGEPVVVTIKVPATANEEDIERIIETLEEIAEILKDIKGSAIIIDIEAGVPQEYRDRLIDKAEELEEKYPNVTVIIALEEE
B4: LC3A_28_1289 (protein)
chain: SAIEKEIAKALAEAKKAVEKGEPVVITITIPSGATEEEIAKVIKGLEEIAKLLSSVKDQAIVINVESGVKEEHINKLADKAEEIEEKYPNVTVIIALDED
B5: LC3A_28_753 (protein)
chain: MDIAAEVAAAIAEAKAAAAAGEEAVITITVPAGATEADVDIVIAGMREIAEIAKDMPSMTIVVDIEAGVPQEHIDRLMDEGEEIEEKYPNVTVIFALDED
B6: LC3A_28_961 (protein)
chain: SALDKQLEAVLAEAKAAAAAGEARVFTINVPGTADEEDIEKVIEALKEIAEILKNVKGSAIIVNVDAGVKQEHIDKIADAAEEIEKKYPNITVIIALDED
B7: LC3A_free_39_2235 (protein)
chain: SMEELDRLIREVAEEGGIDYEYVREKMEEIQKVAELSDEQMLELVKALLEAVRAGADAREILEDILKLAKELKEEGKSPEEILEALLERVEDYRNLVPLD
B8: LC3A_28_1275 (protein)
chain: SPLDKSLAAALAKAKEAKAKKESAVITIDVPGTATQEDIDKVIAALEEIAEILKDIPNQAIVINVDGKVPQEYIDKIADKAEEIEKKYPNITVIIALGEE
B9: LC3A_28_954 (protein)
chain: SALEKQLAAVLAEAREAAARGEARVFTITVPGTADEEDIEKVIEAMEEIAELLKDIPGSAIVINVEAGVKQEHIDKLIDKAEEIEEKYPNVTVIIALDED
B10: LC3A_28_944 (protein)
chain: MTIEEEIEKALKEAKEAKAKKEPAVITITVKGDATEEEIEKVIETIKEIAELLKDIKGSAIIVDVEKGVKEEHINKLLDTLDEIEKKYPNISAIMALDED
B11: LC3A_3_1773 (protein)
chain: MEELLARFEEKLRAAGFSEEVIKEALAAIKTFLEKGREEVAETFLELMLEAKDLSEEKLLVMARMAKELAEESKVSEEELIKELKRLFESIAGIEELDEE
B12: LC3A_free_8_2499 (protein)
chain: NVQEAVQKILEALDQLEEDVEKLGKELNLDPLDVNELLLEIGSLIAEVISLKDAPIEEIKKATLEGMKEILELAKKIHPELAKLVEKYTKKIEEIFKEAE
B13: LC3A_28_1048 (protein)
chain: SDLKKNAEEAIKEAEELAKKGEEAVVTINVGEIDTETAEKIVKETLERLAKISKEYGGIKISVVINFDGDQETFDAIAKAAEEAEKKNPNLTVIIAYPDK
B14: LC3A_127_212 (protein)
chain: EEKKLLEEALEIAEKALEAVKKIPEEGEKALKEAIELLKKLIELLEKVPSLKEAAEDAKQALEQLKKLPELNEADREEALEHIEMILEGILIEIESELDK
B15: LC3A_28_1193 (protein)
chain: SLADEAIAALRAQAAEALAKGADEVLTVRITSSMSLEDVERITAAMREEAERLASVPSVTIVVDVESGVSQESIDLVAETGEEIEARYPNVTVIIALDED
B16: LC3A_28_1139 (protein)
chain: SALVEAAKAQIRADAEADKDEPEVLLRVTVTSEMTVEQAKEIMAEVERVVEELKDKEKIYIVVDATEPISQEVLDTIVEELDRIEKKFPNVSSIIALPED
B17: LC3A_132_260 (protein)
chain: SEELLEEALKELKELLDKIVELLAKGEDPWPAVKELDEKAREYAEKLSLEETEELAEEVEEYARRLFEERLDPNDEEARRTLDIIEMLLDGVLIEKELRE
B18: LC3A_45_1954 (protein)
chain: MYVAEVSVLVPEAEFDRAVAVLREEAARLREERGLEVVIDEAALAAARAEAKEQGEALVTVTVRSERKDDALDGAVEIEDALEREMSPAVASIISIKEEP
B19: LC3A_3_1908 (protein)
chain: AEEKIEELRELAKKLGHSEEAIALAEEAARLLLENGNEEGFELLLEAVKALAKLSEADQIAFLRDLLAELKENKDDKEAQLKVAEDFLKLAKNAAEIEEI

Target: MAP1LC3A, Q9H492
Test: median log2 fold change of GCK-ALFA target abundance (FLAG IP / Myc IP barcode read proportion) (log2 ratio); each designed protein is fused to an ALFA-tag nanobody in HEK293 cells to bring the named protein to FLAG-tagged glucokinase (GCK); Myc marks an untargeted standard; higher = target protein stabilised (more abundant)
Conditions: target protein: 3xFLAG-MCP-GCK-ALFA reporter; HEK293 landing pad (RPLP)
Procedure, shortened: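 The readout is target abundance, the per-binder median log2 ratio of FLAG to Myc barcode read proportions. It came from HEK293 landing-pad cells carrying a recombined ALFA-nanobody-fused binder library, induced with 2 μg mL^−1 doxycycline and transfected with a plasmid for a FLAG-tagged target and a Myc-tagged standard. After 48 h, lysates were immunoprecipitated with anti-FLAG and anti-Myc, and circular RNA barcodes were reverse transcribed, amplified and sequenced. Each barcode needed a proportion of at least 10^−7 in both replicates and each binder at least 3 barcodes per replicate, a pseudocount of 10^−6 was added, and the replicates were pooled.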

Question: With B1 as the binder, how does the “median log2 fold change” value read?
Answer: The value was -0.281.

Question: For B2, which “median log2 fold change” value is on record?
Answer: The value was 0.481.

Question: Which “median log2 fold change” value does the source give for B3 here?
Answer: The value was -0.0501.

Question: B4 was tested. Which “median log2 fold change” value did it give?
Answer: The value was 0.145.

Question: Which “median log2 fold change” value does the source give for B5 here?
Answer: Its value is -0.237.

Question: B6 was tested. Which “median log2 fold change” value did it give?
Answer: Its value is 0.13.

Question: For B7, which “median log2 fold change” value is on record?
Answer: Its value is -0.103.

Question: Which “median log2 fold change” value does the source give for B8 here?
Answer: Its value is 0.216.

Question: With B9 as the binder, how does the “median log2 fold change” value read?
Answer: The value was 0.125.

Question: B10 was tested. Which “median log2 fold change” value did it give?
Answer: The value was -0.897.

Question: How did the “median log2 fold change” value turn out when B11 was run?
Answer: Its value is 0.23.

Question: Which “median log2 fold change” value does the source give for B12 here?
Answer: The value was 0.209.

Question: B13 was tested. Which “median log2 fold change” value did it give?
Answer: Its value is -0.215.

Question: Which “median log2 fold change” value does the source give for B14 here?
Answer: Its value is 0.184.

Question: With B15 as the binder, how does the “median log2 fold change” value read?
Answer: The value was 0.169.

Question: How did the “median log2 fold change” value turn out when B16 was run?
Answer: Its value is 0.196.

Question: How did the “median log2 fold change” value turn out when B17 was run?
Answer: The value was -0.243.

Question: For B18, which “median log2 fold change” value is on record?
Answer: The value was -0.301.

Question: With B19 as the binder, how does the “median log2 fold change” value read?
Answer: The value was 0.381.
